Data reported in the RNAGym collection of RNA variant scans (doi:10.7554/elife.90254).
The source gives no read counts; variants with many changes may rest on few reads.

B1: LINE1-mini (parent)
chain: GGCAGAGCUCAACACAGCGUGGCAAAGUGGCUGUGGCUAGACUGCC

Variants of: B1
Test: self-cleavage, relative activity (ratio to wild type); higher = more cleavage; in vitro, sequencing; the parent is a self-cleaving ribozyme

Variant	self-cleavage
C8U C10A C15U C18G G29U C31U	0.01
C8U A16U A26U G27C	0.19
C8G U9G G22A	0.02
C8U A11C C15U U28G G30A U34G G36A	0.01
C8U A24C C37G U43C	0.04
C8U G19C A26C U38A	0.02
C8U A26C G27U	0.24
C8U A26C G27C	0.2
C8U C10G G17C G40A	0.06
C8G U28G A41C C46U	0.07
C8U G19C C23U A24G G40C C46G	0.05
C8U C37U G44C	0.07
C8U C18A C31U C37U	0.07
C8U C10G A14U	0.05
C8U G19A G22U C23G	0.21
C8U A14G G27U A41U	0.21
C8U A11G C23G G27U C31G U32C	0.02
C8U C10G G27C G30U	0.01
C8U G19A A24U U38A	0.85
C8U A12G C23G	0.02
C8U C13A A16G	0.12

Variant	self-cleavage
C8U C15A A16C G17C G40A	0.14
C8U G19C U20G A25G G33C	0.11
C8U C31G G40A	0.05
C8U A11G G19C C42U	0.02
C8U C13A G35A C42A	0.76
C8U C23A G30C	0.06
C8G U9A G21C A24C U32G	0.11
C8U A16G A25U G35A G36A	0.05
C8U A11C C42G C45U	0.02
C8U C15G A16U G27C	0.25
C8U A11U C31G	0
C8U C31G U38A	0.04
C8U A24C U32G	0.03
C8U A16U G17U C46A	0.39
C8U A12C U28G	0.02
C8U C18G U28A	0.13
C8U C23U G35C A41U	0.62
C8U A16C G22A G40A	0.06
C8U C10U C46A	0.03
C8U A12U G44U	0.1
C8U A11G G33U U43A	0.04

Variant	self-cleavage
C8G U28A C31G A41G	0.02
C8G U34G C46U	0.02
C8U A14C G40U	0.2
C8U A25U U28A G44U	0.29
C8U G19U G21A	0.24
C8U C31G G36C	0.11
C8U A11G A16C G19C	0.03
C8U C15U G27U G30A C45G	0.02
C8U C18U G35U G40A	0.65
C8U C10A C18A	0.02
C8U C10G C18U G36A	0.02
C8U C10U U28G G36U	0.01
C8U C15A G21A	0.22
C8U C13A A16U G22C U32G C37G C45A	0.01
C8U C10A U20G	0.03
C8U C15A G33C G35U C45A	0.26
C8U A12G G19U G27A U28C C37U U38C	0.03
C8G U28G A39C	0.04
C8U C15U G21U A24U	0.18
C8U A16C U20A A26C G40A	0.02
C8U A16U A24C G29U U43G	0.04

Variant	self-cleavage
C8U C13U U28G C46G	0.51
C8U A11G C13U C37A A39G	0.01
C8U A24C A26C U38A C45G	0.16
C8U A11G A26U C31G	0.02
C8U C37G G40A	0.02
C8U A14C C23U U28C	0.15
C8G U20G G36A	0.03
C8U C10A C13U	0.09
C8U C10A C13G	0.06
C8U G17A C18A C23U U34A	0.18
C8U C13U G27C G36U	0.81
C8U C23A U38C A39G	0.11
C8G U9C A12G U20C	0.01
C8U C13A A26G G30U C31U	0.11
C8U A12G C23U A39U	0.01
C8G U34G G40C	0.03
C8U A26C G30U	0.31
C8U A11G C13U	0.23
C8U A25C G30A G33U	0.07
C8G U28C G40U	0.04
C8U A11U A14U C31A A39C A41U	0
